In the supplement of paper PMC8728848:
This is one part of the list.

Experiments:
Test in all cases: glycan array binding signal (z-score within array); higher = stronger binding
Details in all cases: glycan notation: IUPAC condensed, linker removed
[1] = target: Neu5Ac(a2-3)Gal(b1-4)[Fuc(a1-3)]GlcNAc(b1-3)Gal
Outline: (§1)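 The binding signal is a Z-score computed within each array. Data were drawn from 3228 arrays in the Consortium for Functional Glycomics database, restricted to those with a known protein sequence. Scores were averaged over arrays of the same protein sequence at different concentrations or buffers, and over linkers, and negative values can be taken as non-binding.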

[2] = target: Neu5Ac(a2-3)Gal(b1-4)[Fuc(a1-3)]GlcNAc(b1-3)Gal(b1-4)GlcNAc
Outline: as §1

[3] = target: Neu5Ac(a2-3)Gal(b1-4)[Fuc(a1-3)]GlcNAc(b1-3)Gal(b1-4)[Fuc(a1-3)]GlcNAc(b1-3)Gal(b1-4)[Fuc(a1-3)]GlcNAc
Outline: as §1

[4] = target: Neu5Ac(a2-3)Gal(b1-4)[Fuc(a1-3)]GlcNAc(b1-3)GalNAc
Outline: as §1

[5] = target: Neu5Ac(a2-3)Gal(b1-4)[Fuc(a1-3)]GlcNAc(b1-6)[Gal(b1-3)]GalNAc
Outline: as §1

[6] = target: Neu5Ac(a2-3)Gal(b1-4)[Fuc(a1-3)]GlcNAc(b1-6)[Neu5Ac(a2-3)Gal(b1-3)]GalNAc
Outline: as §1

[7] = target: Neu5Ac(a2-3)Gal(b1-4)[Fuc(a1-3)]GlcNAc6S
Outline: as §1

[8] = target: Neu5Ac(a2-3)Gal6S(b1-4)GlcNAc
Outline: as §1

[9] = target: Neu5Ac(a2-3)Gal6S(b1-4)[Fuc(a1-3)]GlcNAc
Outline: as §1

Neu5Ac(a2-3)GalNAc = target: Neu5Ac(a2-3)GalNAc
Outline: as §1

[10] = target: Neu5Ac(a2-3)GalNAc(b1-4)GlcNAc
Outline: as §1

[11] = target: Neu5Ac(a2-3)[GalNAc(b1-4)]Gal(b1-4)Glc
Outline: as §1

[12] = target: Neu5Ac(a2-3)[GalNAc(b1-4)]Gal(b1-4)GlcNAc
Outline: as §1

[13] = target: Neu5Ac(a2-3)[GalNAc(b1-4)]Gal(b1-4)GlcNAc(b1-3)GalNAc
Outline: as §1

[14] = target: Neu5Ac(a2-3)[Neu5Ac(a2-6)]GalNAc
Outline: as §1

Neu5Ac(a2-6)Gal = target: Neu5Ac(a2-6)Gal
Outline: as §1

[15] = target: Neu5Ac(a2-6)Gal(b1-3)GlcNAc(b1-3)[Gal(b1-4)GlcNAc(b1-6)]Gal(b1-4)Glc
Outline: as §1

Neu5Ac(a2-6)Gal(b1-4)Glc = target: Neu5Ac(a2-6)Gal(b1-4)Glc
Outline: as §1

[16] = target: Neu5Ac(a2-6)Gal(b1-4)GlcNAc
Outline: as §1

[17] = target: Neu5Ac(a2-6)Gal(b1-4)GlcNAc(b1-2)Man
Outline: as §1

[18] = target: Neu5Ac(a2-6)Gal(b1-4)GlcNAc(b1-2)Man(a1-3)Man(b1-4)GlcNAc(b1-4)GlcNAc
Outline: as §1

[19] = target: Neu5Ac(a2-6)Gal(b1-4)GlcNAc(b1-2)Man(a1-3)[Gal(b1-4)GlcNAc(b1-2)Man(a1-6)]Man(b1-4)GlcNAc(b1-4)GlcNAc
Outline: as §1

[20] = target: Neu5Ac(a2-6)Gal(b1-4)GlcNAc(b1-2)Man(a1-3)[GlcNAc(b1-2)Man(a1-6)]Man(b1-4)GlcNAc(b1-4)GlcNAc
Outline: as §1

B1: BTL (Bryothamnion triquetrum) (protein)
chain: ADPICGSSGYSCTTPAILTPKSPGSFPSGYSKVIVTGVGGSYSVYIHRPDGFKVYKASEGGCASFGSYSGGGNSEVGKYGSGGTVVAVACK
glycan array binding signal (z-score) [1]: -0.25
glycan array binding signal (z-score) [2]: -0.176
glycan array binding signal (z-score) [3]: -0.251
glycan array binding signal (z-score) [4]: -0.261
glycan array binding signal (z-score) [5]: -0.156
glycan array binding signal (z-score) [6]: -0.151
glycan array binding signal (z-score) [7]: -0.238
glycan array binding signal (z-score) [8]: -0.269
glycan array binding signal (z-score) [9]: -0.29
glycan array binding signal (z-score) (Neu5Ac(a2-3)GalNAc): -0.277
glycan array binding signal (z-score) [10]: -0.256
glycan array binding signal (z-score) [11]: -0.186
glycan array binding signal (z-score) [12]: -0.276
glycan array binding signal (z-score) [13]: -0.208
glycan array binding signal (z-score) [14]: -0.241
glycan array binding signal (z-score) (Neu5Ac(a2-6)Gal): -0.254
glycan array binding signal (z-score) [15]: -0.251
glycan array binding signal (z-score) (Neu5Ac(a2-6)Gal(b1-4)Glc): -0.264
glycan array binding signal (z-score) [16]: -0.257
glycan array binding signal (z-score) [17]: -0.199
glycan array binding signal (z-score) [18]: -0.279
glycan array binding signal (z-score) [19]: -0.197
glycan array binding signal (z-score) [20]: -0.274
